From patent US20250188167A1 come the findings set out here.

Residue numbers refer to the chain shown, from its start.

The labels stand for the following.
B1: 47F3F10B4-VH1-VL4 (antibody, human IgG1, kappa)
heavy: QVQLVQSGAEVKKPGASVKVSCKASGYTFTDHYMHWVRQAPGQGLEWMGYIFPNNGVSGYNQNFKDRVTMTRDTSISTAYMELSRLRSDDTAVYYCARRQLGLGTMDYWGQGTLVTVSS[human IgG1 constant region omitted]
light: DIQMTQSPSSLSASVGDRVTITCRASKSVSTSGYNYMHWYQQKPGKAPKLLIYLASNLESGVPSRFSGSGSGTDFTLTISSLQPEDFATYYCQHSKELPWTFGQGTKVEIKRTVAAPSVFIFPPSDEQLKSGTASVVCLLNNFYPREAKVQWKVDNALQSGNSQESVTEQDSKDSTYSLSSTLTLSKADYEKHKVYACEVTHQGLSSPVTKSFNRGEC
B2: 12C9F1B5-hIgG1 (antibody)
heavy: QGQIQLVQSGPELKKPGETVKISCKASGFTNYGMNWVKQAPGKGLKWMGWINPYSGVPTYADDFKGRFAFSLETSASTAYLQINNLKNEDTATYFCARDDGFHYTMDYWGQGTSVTVSS[human IgG1 constant region omitted]
light: DVVLTQTPLSLPVSLGDQASISCRSSQNLVHSNGITYLHWYLQKPGQSPKLLIYKVSNRFSGVPDRFSGSGSGTDFTLTISRVEAEDLGVYFCSQSTLVPWTFGGGTKLEIKRTVAAPSVFIFPPSDEQLKSGTASVVCLLNNFYPREAKVQWKVDNALQSGNSQESVTEQDSKDSTYSLSSTLTLSKADYEKHKVYACEVTHQGLSSPVTKSFNRGEC
B3: 34A9C12-hIgG1 (antibody)
heavy: B2 heavy with P16S, M34I, T91S
light: B2 light with T5I, T79K
B4: 38F11B2-hIgG1 (antibody)
heavy: QIQLVQSGPELKKPGETVKISCKASGYTFIDYGMNWVKQAPGKGLKWMGWINIYSGVPTYADDFKGRFAFSLETSANTAYLQINNLKNEDTATYFCARDDGYHYTMNYWGQGTSVTVSS[human IgG1 constant region omitted]
light: B2 light with V2I, L4M, N28S, P45S, D75A, T79K, L98H
B5: 38D6A4-hIgG1 (antibody)
heavy: QIQLVQSGPELKKPGEAVKISCKASGSTFTDFGMNWVRQAPGKGLKWMGWINPYSGVPTYADEFKGRFVFSLETSARVAYMQINDLKNEDTATYFCARDDGYHYTMDYWGQGTSVTVSS[human IgG1 constant region omitted]
light: B2 light with L4M, S10P, N28S, V30I, S68T, T79K, L98H, T107S, K112R
B6: 37F11A10-hIgG1 (antibody)
heavy: B4 heavy with Y27D, I30R, D31N, I53P, N77S, Y80F, Y102F, N107D, Q111L
light: B2 light with L4M, N28S, V30L, I53T, N58H, T79K, L98H, K112R
B7: 37D11F5B8-hIgG1 (antibody)
heavy: B4 heavy with Y27D, I30R, D31N, Y32N, I53P, N77S, Y80F, N107D, Y108F, Q111L
light: B2 light with L4M, N28S, I53T, N58H, T79K, L98H
B8: 47C7E3-hIgG1 (antibody)
heavy: QIQLVQSGPELKKPGETVKISCKASGYTFTNFGMNWVKQAPGKGLKWMGWIYTPSGVPIYADDFKGRFAVSLETSASTAYLQINNLKNEDTATYFCARDDGYYYTMDYWGQGTSVTVSS[human IgG1 constant region omitted]
light: B2 light with V2D, L4M, Q18H, N28S, I35D, T79K, L98H
B9: 43H11G12-hIgG1 (antibody)
heavy: QIQLVQSGPELKKPGETVKISCKASGYNFRDFGMNWVKQAPGKGLKWMGWLNSYSGVPTYADDFKGRFVLSLETSASTAYLQINNLINEDTATYFCGRDDGYNYTMNYWGQGTSVTVSS[human IgG1 constant region omitted]
light: B2 light with L4M, T7A, N28S, K44R, P45A, K50Q, T79K, L98H
B10: 31H11B1-hIgG1 (antibody)
heavy: QVQLQQPGAELGKPGTSVKLSCKASGYTFTSYWMHWVKQRPGQGLEWIGHINPNSGSTNQNAKFKNKATLTVDESSSTAYMQLSTLTSEDSAVYYCTRSGSNYRRNYFDYWGQGTTLTVSS[human IgG1 constant region omitted]
light: DIQMTQSSSYLSVSLGGRVTITCKASDHINNWLAWYQQKPGNAPRLLISGATSLETGVPSRFSGSGSGKDYTLSITSLQTEDVATYYCQQYWSTPLTFGAGTKLELKRTVAAPSVFIFPPSDEQLKSGTASVVCLLNNFYPREAKVQWKVDNALQSGNSQESVTEQDSKDSTYSLSSTLTLSKADYEKHKVYACEVTHQGLSSPVTKSFNRGEC

One experiment concerns the target human B7-H3 (human) (UniProt Q5ZPR3). The experiment is described as follows: cell-based or functional assay.
As for B1, the CDC % Relative activity (EC50 of positive control DS-5573a / EC50 of sample), plate 01 amounted to 96.1%; the CDC % Relative activity (EC50 of positive control DS-5573a / EC50 of sample), plate 02 came to 114%; the CDC EC50 (% target cell lysis, Cell Titer-Glo), plate 01 turned out to be 0.619 µg/mL; the CDC EC50 (% target cell lysis, Cell Titer-Glo), plate 02 was 0.549 µg/mL.

The target in a further experiment is human B7-H3 (human), Q5ZPR3. The experiment is described as follows: cell-based or functional assay.
Sequence of human B7-H3 (human), Q5ZPR3 (Q5ZPR3 29-534): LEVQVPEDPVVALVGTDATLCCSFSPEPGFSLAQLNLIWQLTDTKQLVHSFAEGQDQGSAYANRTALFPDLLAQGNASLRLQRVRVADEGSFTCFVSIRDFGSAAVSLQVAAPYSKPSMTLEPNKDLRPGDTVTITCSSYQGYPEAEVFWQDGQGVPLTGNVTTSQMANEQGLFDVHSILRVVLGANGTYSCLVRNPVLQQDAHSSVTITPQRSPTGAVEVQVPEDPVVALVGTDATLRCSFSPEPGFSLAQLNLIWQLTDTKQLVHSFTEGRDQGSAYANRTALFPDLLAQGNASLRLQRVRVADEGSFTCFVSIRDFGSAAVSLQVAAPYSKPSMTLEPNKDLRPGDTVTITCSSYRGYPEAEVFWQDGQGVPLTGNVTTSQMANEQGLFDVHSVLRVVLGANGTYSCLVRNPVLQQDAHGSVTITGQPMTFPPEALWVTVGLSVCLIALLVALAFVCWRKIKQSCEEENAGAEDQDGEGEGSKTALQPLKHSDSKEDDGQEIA
Consider B2, for which the ADCC % Relative activity (EC50 of positive control MGA-271 / EC50 of sample), plate 01 came out at 1520%; the ADCC EC50 (% target cell lysis, LDH; NK92/CD16a-VV effector cells), plate 01 turned out to be 0.00259 µg/mL; the CDC % Relative activity (EC50 of positive control DS-5573a / EC50 of sample) was 230%; the CDC EC50 (% target cell lysis, Cell Titer-Glo) is 0.299 µg/mL.
Take B3: the ADCC % Relative activity (EC50 of positive control MGA-271 / EC50 of sample), plate 01 turned out to be 1160%; the ADCC EC50 (% target cell lysis, LDH; NK92/CD16a-VV effector cells), plate 01 worked out at 0.00341 µg/mL; the CDC % Relative activity (EC50 of positive control DS-5573a / EC50 of sample) was 257%; the CDC EC50 (% target cell lysis, Cell Titer-Glo) came to 0.269 µg/mL.
The matching figures for B4: 1480%, 0.00266 µg/mL, 216% and 0.319 µg/mL.
On to B5, for which the ADCC % Relative activity (EC50 of positive control MGA-271 / EC50 of sample), plate 02 came to 392%; the ADCC EC50 (% target cell lysis, LDH; NK92/CD16a-VV effector cells), plate 02 was determined as 0.0113 µg/mL; the CDC % Relative activity (EC50 of positive control DS-5573a / EC50 of sample) came out at 137%; the CDC EC50 (% target cell lysis, Cell Titer-Glo) was determined as 0.503 µg/mL.
Take B6: the ADCC % Relative activity (EC50 of positive control MGA-271 / EC50 of sample), plate 01 is 1180%; the ADCC EC50 (% target cell lysis, LDH; NK92/CD16a-VV effector cells), plate 01 came to 0.00334 µg/mL; the CDC % Relative activity (EC50 of positive control DS-5573a / EC50 of sample) came to 193%; the CDC EC50 (% target cell lysis, Cell Titer-Glo) turned out to be 0.357 µg/mL.
The matching figures for B7: 1070%, 0.00368 µg/mL, 258% and 0.267 µg/mL.
B8: the ADCC % Relative activity (EC50 of positive control MGA-271 / EC50 of sample), plate 02 was 1200%; the ADCC EC50 (% target cell lysis, LDH; NK92/CD16a-VV effector cells), plate 02 was 0.00368 µg/mL; the CDC % Relative activity (EC50 of positive control DS-5573a / EC50 of sample) is 275%; the CDC EC50 (% target cell lysis, Cell Titer-Glo) came to 0.251 µg/mL.
On the same counts, the results for B9 are 2740%, 0.00161 µg/mL, 567% and 0.122 µg/mL.
B10: the ADCC % Relative activity (EC50 of positive control MGA-271 / EC50 of sample), plate 02 is 1360%; the ADCC EC50 (% target cell lysis, LDH; NK92/CD16a-VV effector cells), plate 02 stood at 0.00325 µg/mL; the CDC % Relative activity (EC50 of positive control DS-5573a / EC50 of sample) is 176%; the CDC EC50 (% target cell lysis, Cell Titer-Glo) was 0.393 µg/mL.

The next experiment deals with human B7-H3 (human) (UniProt Q5ZPR3). The experiment in a line: flow cytometry (FACS) on CHO-K1 cells expressing human B7-H3; goat anti-human IgG (H+L) secondary. A general note: Flow cytometry measures light scatter and fluorescence of single cells or particles in a stream.
As usually defined, the EC50 is the concentration needed to bring the measured effect to its halfway point. Turning to B1, the EC50 came out at 0.888 nM.
